# Laboratory results as given in PubChem BioAssay AID445 (National Center for Advancing Translational Sciences (NCATS), 2006).
# Out of some 110,000 compounds screened, about 40 (0.04%) were called active. Inconclusive results, whose numbers are uncertain, are shown with a selection of clear calls. The call rests on the fitted dose curve; in most records, active means well fitted curve in the direction sought with a large enough effect in the signal ratio (not every such curve was filed as active); inconclusive means small, poorly fitted or top-dose-only effect, or a change in a side signal; inactive means flat fitted curve, though single readings scatter; the % refers to the signal ratio. Where the call is inconclusive, the potency comes from a doubtful curve fit.
# Assay: IkB Signaling;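 on IkBa stabilization activation: 0% = basal untreated cells and 100% = reference inhibitor full response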
# Settings: ABC-DLBCL IkBa-CBG/CBR dual luciferase ratio (green luciferase fused to IkBa over red control in OCI-Ly3 lymphoma cells), 4 h, scaled: untreated 0%
# Method in brief: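 Luminescence ratio of IκBα-fused green versus native red beetle luciferase in OCI-Ly3 cells, 4 h post-doxycycline with compound; red signal alone, scaled from basal (0%) to zero light (-100%), flagged nonspecific or cytotoxic effects.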
# [1] = IkBa stabilization activation: at 57.1 µM (top of the series), proteasome inhibitor 100% unless noted
# Potency means the concentration at half of the fitted maximal effect.
compound,measurement,setting,value
CC(=O)c1cccc(NC(=O)COc2ccc(S(=O)(=O)N3CCCCC3)cc2)c1,IkBa stabilization activation,[1],inconclusive: 4.87% [signal inhibitor]
CCCCc1nn2c(=O)cc(COC(=O)c3cccc(NC(=O)c4cccc(C)c4)c3)nc2s1,IkBa stabilization activation,[1],inconclusive: 11.6% [signal inhibitor]
CCOc1ccccc1C(=O)N1CCN(CCc2ccccn2)CC1,IkBa stabilization activation,[1],inactive
Cc1c(Cl)cccc1NC(=O)Cn1nc(C(F)(F)F)c2c1CCC2,IkBa stabilization activation,[1],inconclusive: 0.248% [signal inhibitor]
Cc1cc(C)c(NC(=O)Cn2c(=O)n(CCc3ccccc3)c(=O)c3ccccc32)c(C)c1,IkBa stabilization activation,[1],inactive
COc1ccc(OC)c(CNC(=O)c2ccccc2NC(=O)c2nsc3ccccc23)c1,IkBa stabilization activation,[1],inactive
COc1ccc(-c2cc3nc4c(c(N5CCC6(CC5)OCCO6)n3n2)CCCC4)cc1,IkBa stabilization activation,[1],inconclusive: 2.41% [signal inhibitor]
O=C1CCCCCN1Sc1ccccc1,Potency,[1],"inconclusive: 31.6 µM [signal activator, single point]"
COc1ccc(CCNC(=O)c2c(C)oc3nc(C)nc(N4CCOCC4)c23)cc1OC,IkBa stabilization activation,[1],inactive
Cc1cc(C)n(-c2nc3ccccc3nc2Nc2cccc(C(=O)NCCc3ccccc3)c2)n1,IkBa stabilization activation,[1],inconclusive: 3.3% [signal inhibitor]
CCOc1ccc(CNc2ccc3c(c2)nc(C)n3C)cc1,IkBa stabilization activation,[1],inconclusive: 7.52% [signal inhibitor]
Nc1c(NCCCN2CCOCC2)c2ccccc2oc1=O,IkBa stabilization activation,[1],inconclusive: 15.8% [signal inhibitor]
Cc1ccc(NC(=O)C2CCCN(S(=O)(=O)c3cccc4cccnc34)C2)c(Br)c1 (stereo not given),IkBa stabilization activation,[1],inconclusive: 0.46% [signal inhibitor]
Cn1cc(S(=O)(=O)N2CCCCCC2)cc1C(=O)NCc1ccc(Cl)cc1,IkBa stabilization activation,[1],inconclusive: 5.38% [signal inhibitor]
CC1=C(C(=O)Nc2ccccc2)C(c2cccc(O)c2)n2nc(-c3ccccc3Cl)nc2N1 (stereo not given),IkBa stabilization activation,[1],inconclusive: 3.25% [signal inhibitor]
COc1ccccc1-c1nn2c(=O)cc(CN3CCN(S(=O)(=O)c4ccc(C)cc4)CC3)nc2s1,IkBa stabilization activation,[1],inconclusive: -0.106% [signal inhibitor]
Cc1ccc(-n2nnnc2CNC(=O)c2ccc(F)cc2)cc1C,IkBa stabilization activation,[1],inactive
Brc1ccc(CNCCCSc2nnnn2-c2ccccc2)cc1,IkBa stabilization activation,[1],inconclusive: -0.155% [signal inhibitor]
CCOC(=O)Cc1csc(NC(=O)CSc2ncnc3c2cnn3-c2ccc(OC)cc2)n1,IkBa stabilization activation,[1],inconclusive: -4.98% [signal inhibitor]
COc1cccc2cc(-c3cn4c(n3)sc3cc(F)ccc34)c(=O)oc12,Potency,[1],"inconclusive: 3.16 µM [signal inhibitor, partial curve]"
COc1cccc(-c2nc(Cc3ccc(OC)c(OC)c3)no2)c1,IkBa stabilization activation,[1],inconclusive: 0.986% [signal inhibitor]
COc1ccc(C(=O)NCC(c2cccs2)S(=O)(=O)c2ccc(F)c(C)c2)cc1 (stereo not given),IkBa stabilization activation,[1],inconclusive: -1.58% [signal inhibitor]
CCOc1ccc(-c2noc(CSc3nnc(-c4ccccc4)n3-c3ccccc3)n2)cc1,IkBa stabilization activation,[1],inconclusive: 0.359% [signal inhibitor]
CC[C@@H]1CN2CCc3cc(OC)c(OC)cc3[C@H]2C[C@@H]1C[C@H]1NCCc2cc(OC)c(OC)cc21,IkBa stabilization activation,"at 11.4 µM (top of the series), proteasome inhibitor 100%",inconclusive: -0.613% [signal inhibitor]
same,IkBa stabilization activation,"at 25.6 µM (top of the series), proteasome inhibitor 100%",inconclusive: -8.79% [signal inhibitor]
Cc1ccc(S(=O)(=O)N2CCN(C(=O)CN3CCOCC3)C2c2ccccc2)cc1 (stereo not given),IkBa stabilization activation,[1],inactive
O=C1NC(=O)c2cc([N+](=O)[O-])ccc21,IkBa stabilization activation,[1],inactive
CCC(CC)C(=O)Nc1ccc(C(=O)OCc2cc(=O)n3nc(C4CC4)sc3n2)cc1,IkBa stabilization activation,[1],inconclusive: -1.18% [signal inhibitor]
COc1cccc(CNC(=O)CN2N=C(c3ccc(C)cc3)CCC2=O)c1,IkBa stabilization activation,[1],inactive
O=C(NCc1ccccc1Cl)c1cccn1-c1nnc(N2CCCCC2)s1,IkBa stabilization activation,[1],inconclusive: 1.13% [signal inhibitor]
Cc1ccccc1CS(=O)(=O)Cc1ccc(C(=O)NCCCN2CCCC2=O)o1,IkBa stabilization activation,[1],inactive
NCCCc1ccc2oc3ccccc3c2c1,Potency,[1],"inconclusive: 3.16 µM [signal inhibitor, partial curve]"
CCN(CC)CCCNC(=O)CCCn1c(=O)[nH]c2ccc(Br)cc2c1=O,IkBa stabilization activation,[1],inactive
O=C(CSc1nnc(Cn2nnc(-c3ccccc3)n2)n1-c1ccccc1)Nc1ccc(F)cc1,IkBa stabilization activation,[1],inconclusive: 9.54% [signal inhibitor]
C#CCn1c(/C=C/c2ccc(Cl)cc2)nc2ccccc21,IkBa stabilization activation,[1],inconclusive: 0.509% [signal inhibitor]
Brc1c(OCCOCCn2cncn2)ccc2ccccc12,Potency,[1],"inconclusive: 6.31 µM [rising, partial curve]"
CCN(c1ccc(OC)cc1)S(=O)(=O)c1nnc(NC(=O)COc2ccc(F)cc2)s1,IkBa stabilization activation,[1],inconclusive: -1.48% [signal inhibitor]
CC(C)CC(=O)NCC(c1ccc2c(c1)OCO2)N1CCN(c2ccccc2F)CC1 (stereo not given),IkBa stabilization activation,[1],inconclusive: 1.83% [signal inhibitor]
COC(=O)[C@H]1[C@@H]2C[C@H]3c4[nH]c5ccccc5c4CCN3C[C@@H]2CC[C@@H]1O,IkBa stabilization activation,[1],inconclusive: 0.929% [signal inhibitor]
Cn1c(C(=O)NCCCN2CCCC2=O)cc2c(=O)n(C)c3ccccc3c21,IkBa stabilization activation,[1],inactive
Cc1cccc(-c2nc(SCC(=O)NCC3CCCO3)c3c(=O)n(C)c(=O)n(C)c3n2)c1 (stereo not given),IkBa stabilization activation,[1],inactive
COc1ccc(CN2C(=O)[C@@H]3C(c4ccccc4Cl)=NO[C@@H]3C2=O)cc1,IkBa stabilization activation,[1],inactive
N#C/C(=C(/O)COC(=O)c1ccc2c(c1)OCCO2)c1nc2ccccc2[nH]1,Potency,[1],"inconclusive: 31.6 µM [rising, partial curve]"
Cc1oc2c(cc(NS(=O)(=O)c3ccc(Br)cc3)c3ccccc32)c1C(=O)OCc1ccccc1,IkBa stabilization activation,[1],inconclusive: 8.23% [signal inhibitor]
CN(C)c1ccc(C(=O)Nc2sc(Nc3ccccc3)nc2C(N)=O)cc1,IkBa stabilization activation,[1],inconclusive: 1.02% [signal inhibitor]
